Results reported in article PMC6212790.
This is one part of the list. At the low end of the ranking, values are background and their order means little.

These sequences were tested against T1, GST-Rok (full length) (UniProt O34857) (assay: protein binding microarray). Details: Rok is a gene silencer of Bacillus subtilis; high values mean tight binding; most listed sequences are background and not binding sites; double strand, one strand shown.
T1 sequence: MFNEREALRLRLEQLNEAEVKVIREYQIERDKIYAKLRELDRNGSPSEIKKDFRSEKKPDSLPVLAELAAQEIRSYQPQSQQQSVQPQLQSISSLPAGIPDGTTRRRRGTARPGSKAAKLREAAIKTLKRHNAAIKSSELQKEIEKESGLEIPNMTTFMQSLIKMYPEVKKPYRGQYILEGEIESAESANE
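Further: rank score from −0.5 (least bound) to 0.5 (best bound).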

Row | Sequence | binding signal
1 | CATTGCGG | -0.227 E-score
2 | TCAGACCA | -0.311 E-score
3 | AATGTGAG | 0.00555 E-score
4 | AAAAAGAC | -0.196 E-score
5 | CCTCCGTA | -0.309 E-score
6 | TAGGGGGA | -0.225 E-score
7 | CTATGTCA | 0.225 E-score
8 | ATACCCTG | 0.0324 E-score
9 | CGATCACG | -0.0922 E-score
10 | ACTTATTA | 0.239 E-score
11 | AGACATTA | 0.127 E-score
12 | AGGAGCTA | 0.0934 E-score
13 | AACCAGAA | -0.0993 E-score
14 | GACAGCTC | -0.321 E-score
15 | ATAGAGAC | 0.16 E-score
16 | CTCTAGCA | -0.115 E-score
17 | AGGAGCGA | -0.288 E-score
18 | ACTCGCGG | -0.241 E-score
19 | GCGTCGTA | 0.0795 E-score
20 | CCTTGCAA | -0.192 E-score
21 | GCCATTAA | -0.0498 E-score
22 | CGCTATGA | -0.00636 E-score
23 | TAATCCAA | 0.0614 E-score
24 | ACATACGC | 0.0615 E-score
25 | CGAATGCC | -0.0357 E-score

Row | Sequence | binding signal
26 | TCGGGGCA | -0.161 E-score
27 | GCATGGCA | -0.358 E-score
28 | TTAACTAA | 0.0239 E-score
29 | ACGTTTTA | 0.0828 E-score
30 | CCCCACGC | -0.316 E-score
31 | ACACGGTA | 0.123 E-score
32 | GCACCACC | -0.125 E-score
33 | GTATATCA | 0.208 E-score
34 | AAGGATGC | -0.0733 E-score
35 | GAACCAGC | -0.148 E-score
36 | GTTGTTAA | 0.124 E-score
37 | GTTACAAA | 0.098 E-score
38 | AAATACCA | 0.294 E-score
39 | TAAAATCA | 0.142 E-score
40 | CCCCGCGC | -0.338 E-score
41 | CATTCAGG | -0.0934 E-score
42 | GCATCTAA | 0.115 E-score
43 | ATCGTATC | 0.205 E-score
44 | AAAGCAGC | -0.0291 E-score
45 | CAAAGAGG | -0.12 E-score
46 | AGCACCTG | -0.217 E-score
47 | CCTCATCA | -0.214 E-score
48 | CAGTAGTA | 0.343 E-score
49 | CCATACCG | -0.134 E-score
50 | GTGCCCTA | -0.292 E-score

Row | Sequence | binding signal
51 | TATGTCCA | 0.22 E-score
52 | ATGGACGC | 0.0454 E-score
53 | AGGTAACA | -0.0294 E-score
54 | CCATGAAA | -0.202 E-score
55 | ACGGCCGA | -0.0071 E-score
56 | GACTCTAA | -0.12 E-score
57 | GTACCCTA | -0.0864 E-score
58 | CGGACACC | -0.255 E-score
59 | ATCACCAA | 0.0503 E-score
60 | CAAATGTG | 0.0642 E-score
61 | GATTTAAA | 0.147 E-score
62 | GGTTCAAA | -0.000705 E-score
63 | GGGGACAA | -0.336 E-score
64 | CCACCCCC | -0.382 E-score
65 | AGCCACCT | -0.167 E-score
66 | GCTCGACA | -0.325 E-score
67 | CTTCCCAC | -0.188 E-score
68 | GCTCGGAA | -0.175 E-score
69 | ACCTCCCG | -0.124 E-score
70 | CGCACGAG | -0.303 E-score
71 | CGAACTAG | 0.319 E-score
72 | CTTCAGTC | -0.0906 E-score
73 | AGGCAACC | 0.0559 E-score
74 | AAAACCGG | -0.126 E-score
75 | ATTATACG | 0.381 E-score

Row | Sequence | binding signal
76 | CGCGTGTA | 0.187 E-score
77 | CTTCCTTA | -0.172 E-score
78 | GAGGGACC | -0.252 E-score
79 | ACGAGAAC | -0.0723 E-score
80 | AAGTAGAG | 0.104 E-score
81 | GTTATCCA | 0.0676 E-score
82 | CCCAATTC | -0.167 E-score
83 | CTGTAGTA | 0.243 E-score
84 | ATGCCTAA | 0.0616 E-score
85 | ACACGGTG | -0.0829 E-score
86 | ATTTGCTG | -0.00949 E-score
87 | TATTTGAA | 0.101 E-score
88 | ACCCTGTG | -0.217 E-score
89 | ACCGCTGA | -0.181 E-score
90 | ACCTTCTA | 0.21 E-score
91 | TCAGGCGA | -0.137 E-score
92 | CGAGAATA | 0.206 E-score
93 | CACCTGAA | -0.184 E-score
94 | AACACCTT | -0.0359 E-score
95 | ATGATAGA | 0.342 E-score
96 | TATCGTGA | 0.201 E-score
97 | ACACGTTG | -0.157 E-score
98 | GAAAATCA | 0.103 E-score
99 | CGAGTCAC | -0.287 E-score
100 | GATTCTTA | 0.114 E-score

Row | Sequence | binding signal
101 | CGAGCCAA | -0.12 E-score
102 | ACACGATC | 0.0482 E-score
103 | ATAGGGTC | 0.103 E-score
104 | AACTAATC | 0.158 E-score
105 | AGCAAGTG | -0.0153 E-score
106 | CTTATCAC | 0.118 E-score
107 | ACATTGAG | 0.112 E-score
108 | ATCTGAAA | -0.0558 E-score
109 | CCGCTTCA | -0.202 E-score
110 | CCCCTTCC | -0.434 E-score
111 | ATATTTAC | 0.379 E-score
112 | GTATAGCA | 0.113 E-score
113 | CTAAGCAA | 0.0945 E-score
114 | ACCCGGGT | -0.28 E-score
115 | ACTTCTAA | 0.185 E-score
116 | AAAAATAG | 0.204 E-score
117 | CAACATGG | -0.11 E-score
118 | TTGTAAAA | 0.266 E-score
119 | TCCTGCAA | -0.0995 E-score
120 | GCGCGAAA | 0.00527 E-score
121 | CTTCGGGC | -0.239 E-score
122 | GCCAGTCC | -0.273 E-score
123 | AACATCAA | 0.0614 E-score
124 | AGACTACA | 0.0935 E-score
125 | CGCGCCGA | -0.237 E-score

Row | Sequence | binding signal
126 | ACACGAGT | -0.137 E-score
127 | GAATAGCC | -0.186 E-score
128 | TGGCGGAA | -0.221 E-score
129 | CAGGTGAC | -0.146 E-score
130 | CCCAACCC | -0.172 E-score
131 | CCTCACTA | 0.0478 E-score
132 | TCTGAGCA | -0.322 E-score
133 | AGACGAGC | -0.255 E-score
134 | AAAATAGA | 0.325 E-score
135 | TCCGGTCA | -0.148 E-score
136 | AGGTAACC | -0.0171 E-score
137 | AAAAGATT | 0.133 E-score
138 | AGACCACT | -0.0923 E-score
139 | ATTCAGGG | -0.205 E-score
140 | CCCCAGCA | -0.373 E-score
141 | CAACTAGG | 0.234 E-score
142 | CCACTTAC | 0.0783 E-score
143 | CTACTAAG | 0.124 E-score
144 | GAATCTGC | -0.0377 E-score
145 | ACCTTTTG | 0.117 E-score
146 | TAACGAGA | 0.0744 E-score
147 | AACCGTCA | -0.058 E-score
148 | TCCTGAAA | -0.247 E-score
149 | CTCCAAAA | 0.0113 E-score
150 | ACGGATGG | -0.248 E-score

Row | Sequence | binding signal
151 | ACTTCTCA | 0.161 E-score
152 | CGAGTACA | -0.00996 E-score
153 | GTCTTCAC | -0.121 E-score
154 | CGGGCTGA | -0.123 E-score
155 | ACGTTTGA | -0.048 E-score
156 | CGGTCTCC | -0.313 E-score
157 | AAACACCA | -0.116 E-score
158 | AGGATGCG | -0.0785 E-score
159 | GTTCGGGA | -0.107 E-score
160 | ACTCTGCA | -0.241 E-score
161 | TACGATAA | 0.292 E-score
162 | AAGCAAAC | 0.156 E-score
163 | GATTGACA | 0.0214 E-score
164 | CCCGACGG | -0.219 E-score
165 | AGGTAATA | 0.319 E-score
166 | ATTTGATA | 0.209 E-score
167 | CCCAGACA | -0.325 E-score
168 | AACCCACC | -0.246 E-score
169 | ACCGCCGC | -0.152 E-score
170 | CCGGATAC | -0.132 E-score
171 | GGCGGAAC | -0.291 E-score
172 | AGGGGCAG | -0.325 E-score
